# Results published in the antibiotic and cytotoxicity screens of Wong et al. (2023).
# The list shows a part of the results.
# Test system: HSkMC (human skeletal muscle cells)
# Test: cytotoxicity call (relative viability < 0.9)
# Settings: 10 µM
row,Compound,cytotoxicity call
1,C[C@H](CO)N1C[C@H](C)[C@@H](CN(C)C(=O)Nc2ccc3c(c2)OCO3)OCCCC[C@H](C)Oc2ccc(NS(=O)(=O)c3ccc(Cl)cc3)cc2C1=O,inactive
2,Cc1noc(C)c1NC(=O)Nc1ccc2c(c1)C(=O)N([C@@H](C)CO)C[C@H](C)[C@@H](CN(C)Cc1ccccc1)OCCCC[C@@H](C)O2,inactive
3,NNC(=O)Oc1ccccc1,inactive
4,C[C@H](O)C#Cc1cnc2c(c1)C(=O)N([C@@H](C)CO)C[C@H](C)[C@@H](CN(C)Cc1cncnc1)O2,inactive
5,C[C@@H]1CN([C@@H](C)CO)C(=O)c2cccc(NC(=O)C3CC3)c2O[C@@H]1CN(C)Cc1ccc2c(c1)OCO2,inactive
6,COc1ccc(NC(=O)N(C)C[C@@H]2OCCCC[C@@H](C)Oc3ccc(NC(=O)NC(C)C)cc3C(=O)N([C@H](C)CO)C[C@@H]2C)cc1,inactive
7,C[C@H](CO)N1C[C@H](C)[C@H](CN(C)C(=O)Nc2ccc(F)cc2)Oc2c(NC(=O)CCCCCC(=O)Nc3ccccc3N)cccc2C1=O,inactive
8,Cc1ccc(S(=O)(=O)Nc2ccc3c(c2)C(=O)N([C@@H](C)CO)C[C@@H](C)[C@H](CN(C)C(=O)Nc2ccccc2)OCCCC[C@@H](C)O3)cc1,inactive
9,CC(=O)N1CCO[C@H]2CCN(C(=O)c3cn(C)cn3)C[C@H]21,inactive
10,C[C@@H]1CN([C@@H](C)CO)S(=O)(=O)c2ccc(C#CCN(C)C)cc2O[C@H]1CN(C)Cc1ccccn1,inactive
11,C[C@@H]1CCCCO[C@@H](CN(C)S(=O)(=O)c2cn(C)cn2)[C@@H](C)CN([C@H](C)CO)C(=O)c2cc(NC(=O)Nc3ccc(C(F)(F)F)cc3)ccc2O1,inactive
12,C[N+](C)(CCOc1ccccc1)Cc1ccccc1.O=C([O-])c1cc2ccccc2cc1O,inactive
13,O=C(/C=C/c1ccc(O)c(O)c1)O[C@H]1[C@H](O)C[C@](OC(=O)/C=C/c2ccc(O)c(O)c2)(C(=O)O)C[C@H]1O,inactive
14,O=C(C[C@H]1C=C[C@@H](NC(=O)c2ccncc2)[C@H](CO)O1)NCc1ccncn1,inactive
15,O=C(C[C@H]1CC[C@H]2[C@@H](COC[C@@H](O)CN2C(=O)c2ccc3c(c2)OCO3)O1)NCCN1CCCCC1,inactive
16,COc1ccc(S(=O)(=O)N2C[C@@H](O)COC[C@@H]3O[C@@H](CC(=O)N[C@H]4CCN(Cc5ccccc5)C4)CC[C@H]32)cc1,inactive

row,Compound,cytotoxicity call
1,C[C@@H]1CCCCO[C@@H](CN(C)CC2CC2)[C@H](C)CN([C@H](C)CO)C(=O)c2cc(NC(=O)Nc3ccc(F)cc3)ccc2O1,inactive
2,O=c1cc(-c2ccccc2)[nH]c(=O)[nH]1,inactive
3,C[C@H]1CN([C@@H](C)CO)C(=O)Cc2cc(N(C)C)ccc2O[C@H]1CN(C)S(=O)(=O)c1ccc(F)cc1,inactive
4,C[C@@H]1CN([C@@H](C)CO)C(=O)c2cc(NC(=O)CCN3CCOCC3)ccc2O[C@H]1CN(C)S(=O)(=O)c1ccc(F)cc1,inactive
5,CS(=O)(=O)N1C[C@@H](O)COC[C@H]2O[C@H](CC(=O)NCc3ccccc3)CC[C@@H]21,inactive
6,COC(=O)c1c2oc(c1C(=O)OC)C(=O)N[C@@H](Cc1ccccc1)Cn1cc(nn1)CNC(=O)[C@H](Cc1ccccc1)NC(=O)N[C@@H](CO)CC2,inactive
7,NC1CCN(C(=O)c2cc3ccccc3[nH]2)CC1,inactive
8,C[C@@H]1CN([C@H](C)CO)C(=O)c2cc(NS(=O)(=O)c3cn(C)cn3)ccc2O[C@H]1CN(C)C(=O)Nc1ccc(F)cc1,inactive
9,COc1ccc(NC(=O)N(C)C[C@H]2OCc3cnnn3CCCC(=O)N([C@@H](C)CO)C[C@H]2C)c(OC)c1,inactive
10,C[C@H](CO)N1C[C@H](C)[C@H](CN(C)C(=O)Nc2ccc(N3CCN(C)CC3)cc2)OCc2cn(nn2)CCCC1=O,inactive
11,COc1ccc(CN(C)C[C@@H]2Oc3ccc(NS(=O)(=O)c4cn(C)cn4)cc3C(=O)N([C@@H](C)CO)C[C@H]2C)cc1,inactive
12,Cc1noc(C)c1NC(=O)N(C)C[C@H]1Oc2c(NS(=O)(=O)c3c(C)noc3C)cccc2C(=O)N([C@@H](C)CO)C[C@H]1C,inactive
13,C[C@H]1CN([C@@H](C)CO)C(=O)c2cc(NC(=O)Cn3cnnn3)ccc2O[C@H]1CN(C)Cc1ccc(C(=O)Nc2ccccc2N)cc1,inactive
14,C[C@H](CO)N1C[C@H](C)[C@@H](CN(C)C(=O)NC2CCCC2)Oc2cc(-c3cncnc3)ccc2S1(=O)=O,inactive
15,C[C@H](CO)N1C[C@H](C)[C@H](CN(C)C(=O)Nc2cccc3ccccc23)OCCCC[C@H](C)Oc2ccc(NC(=O)Cc3ccccc3)cc2C1=O,inactive
